In the supplement of paper PMC4967469 one finds AUC and IC50 data, which are given here for 68 cell lines.

By IC50 is meant the dose at which the fit gives 50% viability; where the fit passes the top or lowest dose, that dose stands as a limit. AUC sums up the same curve from the lowest dose to the 256-fold higher top dose; the more sensitive the line, the further below 1. The top dose, if marked as inferred, comes from the curve model; the source does not state it. Some results are limits rather than exact numbers.

One may read the IC50 as the concentration at which inhibition is half-maximal.

Compound in the test: CCc1nc(-c2cccc(C)c2)c(-c2ccnc(NC(=O)c3ccccc3)c2)s1 [TAK-715]
The experiment in a line: Viability of human cancer cell lines after 72 h of drug (GDSC screen). To be noted: top dose inferred. The method, then:
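Human cancer cell lines in 384-well plates, medium with 10% serum, drug for 72 h over a 256-fold dose range (nine 2-fold or five 4-fold steps up to the top dose). Adherent lines were fixed and stained with the nucleic acid dye Syto60, suspension lines read with resazurin; signal relative to control wells, capped at 0 and 100%. One two-parameter sigmoid per drug and line, fitted in a mixed model over all curves with the slope shared within a line.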

As to “Farage (B-cell lymphoma, suspension, top dose 20 µM)”, the AUC was determined as 0.861 and the IC50 stood at 12.2 µM.
Taken in the same sequence, the figures for “G-292 Clone A141B1 (osteosarcoma, adherent, top dose 20 µM)” were 0.976 and more than 20 µM.
On to “G-361 (melanoma, adherent, top dose 20 µM)”, for which the AUC is 0.937 and the IC50 was more than 20 µM.
As to “G-401 (kidney, adherent, top dose 20 µM)”, the AUC stood at 0.815 and the concentration for half-maximal inhibition (IC50) stood at 12.4 µM.
On to “G-402 (soft tissue, adherent, top dose 20 µM)”, for which the AUC is 0.926 and the IC50 is more than 20 µM.
Taken in the same sequence, the figures for “G-MEL (melanoma, adherent, top dose 20 µM)” were 0.93 and more than 20 µM.
“GAK (melanoma, adherent, top dose 20 µM)”: the AUC worked out at 0.978 and the IC50 was more than 20 µM.
Turning to GAMG (glioma, adherent, top dose 20 µM), the AUC is 0.967 and the IC50 was more than 20 µM.
Regarding GB-1 (glioma, adherent, top dose 20 µM), the AUC is 0.958 and the IC50 is more than 20 µM.
For the cell line “GCIY (stomach, adherent, top dose 20 µM)”, the AUC was 0.976 and the IC50 is more than 20 µM.
For “GCT (soft tissue, adherent, top dose 20 µM)”, the AUC worked out at 0.989 and the IC50 was more than 20 µM.
The corresponding values for “GDM-1 (acute myeloid leukaemia, suspension, top dose 20 µM)” are 0.815 and 10.4 µM.
The corresponding values for GI-1 (glioma, adherent, top dose 20 µM) are 0.977 and more than 20 µM.
Taken in the same sequence, the figures for “GI-ME-N (neuroblastoma, adherent, top dose 20 µM)” were 0.936 and more than 20 µM.
On to “GMS-10 (glioma, adherent, top dose 20 µM)”, for which the AUC turned out to be 0.988 and the IC50 was more than 20 µM.
With “GOTO (neuroblastoma, adherent, top dose 20 µM)”, the AUC stood at 0.951 and the IC50 was more than 20 µM.
Take “GP5d (large intestine, adherent, top dose 20 µM)”: the AUC is 0.954 and the IC50 is more than 20 µM.
The corresponding values for “GR-ST (lymphoblastic leukaemia, suspension, top dose 20 µM)” are 0.902 and more than 20 µM.
Taken in the same sequence, the figures for “GRANTA-519 (B-cell lymphoma, suspension, top dose 20 µM)” were 0.883 and 17.6 µM.
Taken in the same sequence, the figures for “GT3TKB (stomach, adherent, top dose 20 µM)” were 0.95 and more than 20 µM.
Consider H4 (glioma, adherent, top dose 20 µM), for which the AUC amounted to 0.894 and the IC50 was more than 20 µM.
As to “H9 (lymphoid neoplasm, suspension, top dose 20 µM)”, the AUC worked out at 0.984 and the IC50 is more than 20 µM.
For the cell line “H290 (mesothelioma, adherent, top dose 20 µM)”, the AUC came out at 0.97 and the IC50 is more than 20 µM.
Take “H513 (mesothelioma, semi-adherent, top dose 20 µM)”: the AUC was found to be 0.979 and the IC50 is more than 20 µM.
Taken in the same sequence, the figures for “H2369 (mesothelioma, adherent, top dose 20 µM)” were 0.983 and more than 20 µM.
The corresponding values for “H2373 (mesothelioma, adherent, top dose 20 µM)” are 0.982 and more than 20 µM.
Take “H2461 (mesothelioma, adherent, top dose 20 µM)”: the AUC was 0.983 and the IC50 is more than 20 µM.
For the cell line “H2591 (mesothelioma, adherent, top dose 20 µM)”, the AUC worked out at 0.962 and the half-maximal inhibitory concentration (IC50) is more than 20 µM.
Taken in the same sequence, the figures for “H2595 (mesothelioma, adherent, top dose 20 µM)” were 0.977 and more than 20 µM.
Taken in the same sequence, the figures for “H2722 (mesothelioma, adherent, top dose 20 µM)” were 0.984 and more than 20 µM.
Take “H2731 (mesothelioma, adherent, top dose 20 µM)”: the AUC worked out at 0.898 and the IC50 is more than 20 µM.
For “H2795 (mesothelioma, adherent, top dose 20 µM)”, the AUC came out at 0.947 and the IC50 is more than 20 µM.
Taken in the same sequence, the figures for “H2803 (mesothelioma, adherent, top dose 20 µM)” were 0.959 and more than 20 µM.
“H2804 (mesothelioma, adherent, top dose 20 µM)”: the AUC is 0.986 and the IC50 was more than 20 µM.
Regarding “H2818 (mesothelioma, adherent, top dose 20 µM)”, the AUC came out at 0.972 and the IC50 was more than 20 µM.
For the cell line “H2869 (mesothelioma, adherent, top dose 20 µM)”, the AUC was 0.984 and the IC50 was more than 20 µM.
As for “H3118 (head and neck, adherent, top dose 20 µM)”, the AUC was determined as 0.764 and the IC50 was found to be 7.94 µM.
On to “H3255 (lung adenocarcinoma, adherent, top dose 20 µM)”, for which the AUC was 0.918 and the half-inhibitory concentration (IC50) is more than 20 µM.
On to “H-EMC-SS (chondrosarcoma, adherent, top dose 20 µM)”, for which the AUC worked out at 0.979 and the IC50 is more than 20 µM.
The corresponding values for “HA7-RCC (kidney, adherent, top dose 20 µM)” are 0.955 and more than 20 µM.
Taken in the same sequence, the figures for “HAL-01 (lymphoblastic leukaemia, suspension, top dose 20 µM)” were 0.754 and 6.03 µM.
For “HARA (lung squamous cell carcinoma, adherent, top dose 20 µM)”, the AUC was determined as 0.819 and the half-inhibitory concentration (IC50) amounted to 13.9 µM.
The corresponding values for “HC-1 (hairy cell leukaemia, suspension, top dose 20 µM)” are 0.888 and more than 20 µM.
Taken in the same sequence, the figures for “HCC38 (breast, adherent, top dose 20 µM)” were 0.945 and more than 20 µM.
Take “HCC70 (breast, adherent, top dose 20 µM)”: the AUC turned out to be 0.963 and the IC50 is more than 20 µM.
Consider “HCC202 (breast, adherent, top dose 20 µM)”, for which the AUC was found to be 0.885 and the IC50 was more than 20 µM.
With “HCC1143 (breast, adherent, top dose 20 µM)”, the AUC turned out to be 0.962 and the half-maximal inhibitory concentration (IC50) is more than 20 µM.
Turning to “HCC1187 (breast, suspension, top dose 20 µM)”, the AUC amounted to 0.912 and the IC50 was more than 20 µM.
In the case of “HCC1395 (breast, adherent, top dose 20 µM)”, the AUC was 0.972 and the IC50 was more than 20 µM.
As to “HCC1419 (breast, adherent, top dose 20 µM)”, the AUC stood at 0.925 and the IC50 is more than 20 µM.
Turning to “HCC1428 (breast, adherent, top dose 20 µM)”, the AUC turned out to be 0.975 and the IC50 is more than 20 µM.
On to “HCC1500 (breast, adherent, top dose 10.24 µM)”, for which the AUC worked out at 0.912 and the IC50 is more than 10.2 µM.
As for “HCC1569 (breast, adherent, top dose 20 µM)”, the AUC was 0.92 and the IC50 was more than 20 µM.
“HCC1599 (breast, suspension, top dose 20 µM)”: the AUC was 0.894 and the IC50 is more than 20 µM.
Taken in the same sequence, the figures for “HCC1806 (breast, adherent, top dose 20 µM)” were 0.932 and more than 20 µM.
Consider “HCC1937 (breast, adherent, top dose 20 µM)”, for which the AUC came to 0.963 and the IC50 is more than 20 µM.
The corresponding values for “HCC1954 (breast, adherent, top dose 20 µM)” are 0.864 and more than 20 µM.
The corresponding values for “HCC2157 (breast, suspension, top dose 20 µM)” are 0.965 and more than 20 µM.
With “HCC2218 (breast, suspension, top dose 20 µM)”, the AUC came to 0.824 and the IC50 was 16.1 µM.
The corresponding values for “HCC2998 (large intestine, adherent, top dose 20 µM)” are 0.967 and more than 20 µM.
The corresponding values for “HCC-15 (lung squamous cell carcinoma, adherent, top dose 20 µM)” are 0.938 and more than 20 µM.
Turning to “HCC-33 (small cell lung carcinoma, adherent, top dose 20 µM)”, the AUC was 0.982 and the IC50 is more than 20 µM.
Taken in the same sequence, the figures for “HCC-44 (lung adenocarcinoma, adherent, top dose 20 µM)” were 0.941 and more than 20 µM.
As for “HCC-56 (large intestine, adherent, top dose 20 µM)”, the AUC came to 0.959 and the half-inhibitory concentration (IC50) is more than 20 µM.
Taken in the same sequence, the figures for “HCC-78 (lung adenocarcinoma, adherent, top dose 20 µM)” were 0.874 and more than 20 µM.
As to “HCC-827 (lung adenocarcinoma, adherent, top dose 20 µM)”, the AUC is 0.619 and the IC50 worked out at 2.79 µM.
Taken in the same sequence, the figures for “HCE-4 (oesophagus, adherent, top dose 20 µM)” were 0.952 and more than 20 µM.
With “HCT-15 (large intestine, adherent, top dose 20 µM)”, the AUC worked out at 0.957 and the half-inhibitory concentration (IC50) is more than 20 µM.
